Inconclusive means that the source gave no clear call. Such entries were picked first, then a sample of the others. No potency is given beside an inconclusive call; the fits are too rough. Active and inactive are the calls of the source. Calls follow the shape of the dose curve; as a rule, active = well fitted inhibition curve with a large enough effect; inconclusive = small, poorly fitted or top-dose-only effect; inactive = no such curve, though single readings can be large or run the other way.
Biological target: Retinal dehydrogenase 2 (Homo sapiens) (UniProt O94788)
Test: qHTS for Inhibitors of the Aldehyde Dehydrogenase Family (ALDH1A2) Confirmation screens (AID 2061314); also: nearly all actives have a fitted effect of over 65% in size
Conditions: activity, negative = inhibition: at 45.9 µM (top of the series) unless noted
% is scaled to controls: 0 for no effect and ±100 for the full control effect; potency is read from the fitted curve at half-maximal effect; tags tell the direction and shape of the fitted curve.

| Structure (SMILES) | Potency | activity, negative = inhibition |
| --- | --- | --- |
| COc1cc(-c2noc(-c3ccc(NC4CCCC4)c([N+](=O)[O-])c3)n2)cc(OC)c1OC | inconclusive [inhibitor, partial curve, poor fit] | – |
| Cc1nc2c(c(C)c1CCC(=O)Nc1ccc(F)cc1)c(=O)n(C)c(=O)n2C | inactive | – |
| COc1ccc(NC(=O)CN(C)S(=O)(=O)c2ccc(C(=O)N3CCOCC3)s2)cc1 | inactive | – |
| CCc1ccc(N(CC)C(=O)c2cn(C)c(=O)c3cc(OC)c(OC)cc23)cc1 | inactive | – |
| CCOC(=O)CC(=O)CSc1nc2ccccc2c(=O)n1-c1ccc(C(=O)NCCOC)cc1 | inconclusive [inhibitor, partial curve, poor fit] | – |
| COc1ccc(C(=O)c2cnc3ccc(C)cc3c2S(=O)(=O)c2ccccc2)cc1 | – | inconclusive: -34.6% [inhibitor] |
| CC(=O)c1ccc(NC(=O)CCc2c(C)nn(-c3ccc4nnc(C)n4n3)c2C)cc1 | inactive | – |
| COC(=O)CSc1ccc2nnc(CCNS(=O)(=O)c3ccccc3)n2n1 | inactive | – |
| Cc1nn(-c2ccc3nnc(C)n3n2)c(C)c1CCC(=O)Nc1ccc(OC(F)(F)F)cc1 | inactive | – |
| CCC(=O)Nc1ccc(-c2c(-c3cc(OC)cc(OC)c3)nn(-c3ccc(C)cc3)c2OC(C)=O)cc1 | inconclusive [inhibitor, partial curve, poor fit] | – |
| CC(C)OCCCn1c(SCc2ccccc2C#N)nc2c(sc3ccccc32)c1=O | inconclusive [inhibitor, partial curve] | – |
| CCc1nn2c(=O)c(S(=O)(=O)Nc3ccc(C)cc3C)c(C)nc2s1 | inactive | – |

Reference: PubChem BioAssay (NCATS)
